# Assay results taken from publication PMC4336329 (PLoS ONE, 2015).
# In all, about 310,000 compounds went through this assay and about 2,200 (0.71%) showed an effect of 50% or more. The effect is printed as a negative number. The list shows a part of the results.
# Biological target: human ether-à-go-go-related gene (hERG) potassium channel (human, UniProt Q12809)
# Experiment: primary screen, population patch clamp on CHO cells stably expressing hERG
# human ether-à-go-go-related gene (hERG) potassium channel, sequence (Q12809 whole entry, looked up): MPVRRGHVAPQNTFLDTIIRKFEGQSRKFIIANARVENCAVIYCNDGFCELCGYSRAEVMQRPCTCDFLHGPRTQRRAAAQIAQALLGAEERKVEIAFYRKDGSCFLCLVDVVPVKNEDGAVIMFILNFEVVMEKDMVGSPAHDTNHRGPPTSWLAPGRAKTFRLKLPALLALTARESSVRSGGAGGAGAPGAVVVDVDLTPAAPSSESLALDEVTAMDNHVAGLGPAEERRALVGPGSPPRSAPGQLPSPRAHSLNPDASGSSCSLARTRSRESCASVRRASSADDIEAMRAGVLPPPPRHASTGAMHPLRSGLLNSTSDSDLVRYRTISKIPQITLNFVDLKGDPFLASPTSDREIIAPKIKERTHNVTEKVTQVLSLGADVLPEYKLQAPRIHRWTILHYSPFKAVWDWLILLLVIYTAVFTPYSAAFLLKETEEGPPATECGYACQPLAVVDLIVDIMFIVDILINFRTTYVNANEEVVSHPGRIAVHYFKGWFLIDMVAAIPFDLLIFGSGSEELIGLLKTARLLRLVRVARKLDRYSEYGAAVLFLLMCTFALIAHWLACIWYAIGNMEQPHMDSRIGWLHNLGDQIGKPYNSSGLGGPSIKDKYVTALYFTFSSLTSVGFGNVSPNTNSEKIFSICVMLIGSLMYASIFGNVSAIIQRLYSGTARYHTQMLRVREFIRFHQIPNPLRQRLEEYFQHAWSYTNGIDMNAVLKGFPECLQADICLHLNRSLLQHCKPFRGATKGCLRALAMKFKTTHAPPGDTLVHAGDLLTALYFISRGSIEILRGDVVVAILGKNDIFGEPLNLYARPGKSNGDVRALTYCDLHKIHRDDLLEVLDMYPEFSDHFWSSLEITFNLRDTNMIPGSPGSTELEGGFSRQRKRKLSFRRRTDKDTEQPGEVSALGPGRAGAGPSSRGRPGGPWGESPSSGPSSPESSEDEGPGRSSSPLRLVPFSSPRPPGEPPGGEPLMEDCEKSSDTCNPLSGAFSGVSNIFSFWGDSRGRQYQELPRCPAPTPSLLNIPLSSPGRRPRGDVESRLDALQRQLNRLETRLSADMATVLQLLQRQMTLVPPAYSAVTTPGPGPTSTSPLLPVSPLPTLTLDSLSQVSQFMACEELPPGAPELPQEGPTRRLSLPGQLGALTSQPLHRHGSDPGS
row,SMILES,"hERG current change (%, negative = inhibition) at 1uM [%]"
1,O=C(O)c1ccc(S(=O)(=O)c2ccc3c(c2)C(=O)N(c2ccccc2[N+](=O)[O-])C3=O)cc1,20.6
2,CCCC(c1nnnn1C(C)(C)C)N1CCN(c2ccccc2)CC1 (stereo not drawn),2.32
3,Cc1ccc(C(=O)OCC(=O)c2ccccc2)cc1,2.78
4,CC(C)CCNC(=O)c1cc(-c2ccco2)nc2ccccc12,13.1
5,O=C(Nc1ccccc1Oc1ccccc1)c1cnccn1,0.812
6,Cc1ccc(Cn2ccc(NC(=O)c3cc(-c4ccc(Cl)cc4)on3)n2)cc1,20.3
7,CCCCCn1nc(C)c(/C=N\NC(=O)c2cc(C)oc2C)c1C,-15.4
8,CCCc1cc(C(=O)Nc2cccc3ccccc23)n(C)n1,14.9
9,CCN(C(=S)NC(=O)Cc1ccc(OC)cc1)c1ccccc1,8.24
10,COc1ccccc1NC(=O)Cn1c(CCC(=O)O)ccc1-c1ccccc1,11
11,Cc1ccc(C(=O)Nc2cc(C(F)(F)F)ccc2-n2cncn2)o1,3.24
12,COc1cc(C(=O)NC(C)c2cc(C)ccc2C)ccc1OCC(=O)N1CCOCC1 (stereo not drawn),-10.7
13,CSc1nnc(-c2ccccc2)n1C,11.8
14,O=C(COc1ccc2c3c(c(=O)oc2c1)CCCC3)NCCCN1CCOCC1,1.79
15,CCC(CC)n1[nH]c(=O)cc1N,4.67
16,Cc1ccc(S(=O)(=O)NCCC(=O)NCCSc2ccc(Br)cc2)cc1,9.99
17,N#Cc1cnc(SCCc2ccccc2)nc1N,1.46
18,O=C(NCc1ccc2c(c1)OCO2)c1cc(-c2ccccc2)on1,7.99
19,COc1cc2[nH]c(=S)nc(NCc3cccc(Cl)c3)c2cc1OC,11.1

row,SMILES,"hERG current change (%, negative = inhibition) at 1uM [%]"
1,Cn1c(SCC(=O)Nc2nccs2)nnc1-c1ccc(S(=O)(=O)N2CCCC2)cc1,5.76
2,CCN(CC)S(=O)(=O)c1ccc(-c2nnc3sc4cccc(C)c4n23)cc1,4.32
3,C/C(=N\NC(=O)c1cccc([N+](=O)[O-])c1)c1ccncc1,3.5
4,CCN(c1ccc(OC)cc1)S(=O)(=O)c1csc(C(=O)N2CCCC2)c1,-8.29
5,Cl.O=C(CN1CCCC1)Nc1ccc(OC(F)(F)F)cc1,-16.5
6,Nc1nc(CSc2ccccn2)nc(Nc2ccccc2)n1,14.8
7,Cc1ccc2c(Cl)cc(Cl)c(OCC(=O)NC(=O)NCc3ccco3)c2n1,7.97
8,O=C(/C=C/c1ccccc1)OCCCN=C1NS(=O)(=O)c2ccccc21,7.74
9,CCn1c2ccccc2c2cc(CN3CCN(Cc4cc(OC)ccc4O)CC3)ccc21.O=C(O)C(=O)O,9.14
10,CC1=C(C(=O)Nc2ccccc2)C(c2cccs2)NC(=O)N1 (stereo not drawn),6.05
11,Cc1cc2c(c(=O)o1)C1(C(=O)N(C)c3ccccc31)C(C#N)=C(N)O2 (stereo not drawn),5.81
12,COc1ccc(NC(=O)C2CC(=O)n3c(nc4ccccc43)N2)cc1 (stereo not drawn),4.53
13,CCN(c1ccccc1)c1cc2ccccc2c(=O)[nH]1,4.53
14,COc1cccc(-c2noc(-c3ccc(Br)o3)n2)c1,13.4
15,CN1CCN(C(=O)CSc2nc(-c3ccco3)cc(C(F)(F)F)n2)CC1,11.4
16,Cc1ccccc1OCC(=O)Nn1c(COc2ccccc2)nc2ccccc2c1=O,4.4
17,COc1cc(OC)c(NC(=O)C2CCN(S(=O)(=O)c3ccc4c(c3)CC(C)N4C(C)=O)CC2)cc1Cl (stereo not drawn),9.53
18,Cc1ccc(C(=O)N/C(=C\c2ccco2)C(=O)NC2CCS(=O)(=O)C2)cc1 (stereo not drawn),9.68
19,C/C(=N\NC(=O)c1c(Cl)c(C)nn1C)c1ccc(NC(=O)c2ccncc2)cc1,0.881

row,SMILES,"hERG current change (%, negative = inhibition) at 1uM [%]"
1,CCn1c(CNC(=O)c2cc(OC)c(OC)c(OC)c2)cc2ccccc21,6.88
2,Cc1ccc(OCC(=O)NN=C2c3ccccc3-c3ccccc32)cc1,-12.6
3,O=C(NCC1CCCO1)Nc1cccc(Cl)c1 (stereo not drawn),1.27
4,CCOC(=O)COc1ccc(S(=O)(=O)Nc2ccc(C)cc2)cc1,-15.9
5,Cc1ccc(C(=O)Nc2c(C#N)c(C)c(C)n2Cc2ccccc2)cc1,10.2
6,CCOC(=O)C(CC)Sc1cc(C)nc2ccc(OC)cc12 (stereo not drawn),6.6
7,Cc1cc(C)n2nc(C(=O)Nc3ccc(N4CCOCC4)cc3)nc2n1,6.01
8,CCN(CC(=O)Nc1ccccc1C(=O)Nc1ccccc1)Cc1nc2ccccc2c(=O)[nH]1,-49
9,OCCN(Cc1ccccc1)C(=S)Nc1ccc(Cl)cc1Cl,19
10,CN(C)c1cccc(C(=O)NCC(c2ccco2)N(C)C)c1 (stereo not drawn),6.2
11,COc1ccc(NC(=O)c2cc3sccc3n2Cc2ccc(F)cc2)cc1OC,1.61
12,Cc1csc(N/N=C\c2cccnc2)n1,2.56
13,Cc1ccc(NC2CCCN(C(=O)c3ccc(F)cc3)C2)cc1C (stereo not drawn),11.1
14,CCOC(=O)C1=C(C)NC(=S)NC1c1cccs1 (stereo not drawn),15
15,CN1CCc2ccc(NC(=O)c3ccc(C(F)(F)F)cc3)cc2C1,2.88
16,CCOC(=O)CC(NC(=O)c1cccc2c1C(=O)N(Cc1cccnc1)C2)c1ccc(OCC)c(OC)c1 (stereo not drawn),-3.38
17,O=C(Cc1c[nH]c2ccccc12)N[C@@H](Cc1c[nH]c2ccccc12)C(=O)O,8.97
18,COc1cccc(/C=N/NC(=O)c2ccncc2)c1OC(=O)c1ccc(Br)cc1,15.1
19,O=C(NCc1ccccn1)c1ccc(CS(=O)(=O)Cc2ccc(Cl)cc2)o1,10.8
